Laboratory results taken from patent publication US20200347136A1, “CONSTRAINED CYCLIC PEPTIDES AS INHIBITORS OF THE CD2:CD58 PROTEIN-PROTEIN INTERACTION FOR TREATMENT OF DISEASES AND AUTOIMMUNE DISORDERS” (Board of Supervisors for the University of Louisiana System, priority 2019, published 2020).

Test system: A549 Red-FLuc lung tumors
Assay: experimental metastasis model of lung cancer, A549 Red-FLuc cells
Conditions: vs vehicle control

Question: Which “EGFR:HER2 and HER2:HER3 dimerization in lung tumor tissue (PLA)” value does the source give for `CC[C@H](C)[C@@H]1NC(=O)[C@H](CCCNC(=N)N)NC(=O)C[C@@H](c2cccc3ccccc23)NC(=O)[C@@H]2CSSC[C@H](NC(=O)C[C@@H](c3cccc4ccccc34)NC(=O)[C@H](CCCNC(=N)N)NC(=O)[C@@H]3CCCN3C(=O)[C@@H]3CCCN3C1=O)C(=O)N[C@@H](Cc1ccccc1)C(=O)N1CCC[C@H]1C(=O)N[C@@H](CC(=O)O)C(=O)N[C@@H](CC(=O)O)C(=O)N[C@@H](Cc1ccccc1)C(=O)N2` [SFTI-G5, Cyclo(C(S-X)RIPPR(S-X)CFPDDF)] here?
Answer: The value was “reduction in red fluorescence”.
